# Data from publication PMC4336329 (PLoS ONE, 2015).
# Out of some 310,000 compounds screened, about 2,200 (0.71%) showed an effect of 50% or more. Effects have a minus sign here. This is one part of the list.
# Target: human ether-à-go-go-related gene (hERG) potassium channel (human, UniProt Q12809)
# Assay: primary screen, population patch clamp on CHO cells stably expressing hERG
# Chain of human ether-à-go-go-related gene (hERG) potassium channel (Q12809 whole entry, looked up): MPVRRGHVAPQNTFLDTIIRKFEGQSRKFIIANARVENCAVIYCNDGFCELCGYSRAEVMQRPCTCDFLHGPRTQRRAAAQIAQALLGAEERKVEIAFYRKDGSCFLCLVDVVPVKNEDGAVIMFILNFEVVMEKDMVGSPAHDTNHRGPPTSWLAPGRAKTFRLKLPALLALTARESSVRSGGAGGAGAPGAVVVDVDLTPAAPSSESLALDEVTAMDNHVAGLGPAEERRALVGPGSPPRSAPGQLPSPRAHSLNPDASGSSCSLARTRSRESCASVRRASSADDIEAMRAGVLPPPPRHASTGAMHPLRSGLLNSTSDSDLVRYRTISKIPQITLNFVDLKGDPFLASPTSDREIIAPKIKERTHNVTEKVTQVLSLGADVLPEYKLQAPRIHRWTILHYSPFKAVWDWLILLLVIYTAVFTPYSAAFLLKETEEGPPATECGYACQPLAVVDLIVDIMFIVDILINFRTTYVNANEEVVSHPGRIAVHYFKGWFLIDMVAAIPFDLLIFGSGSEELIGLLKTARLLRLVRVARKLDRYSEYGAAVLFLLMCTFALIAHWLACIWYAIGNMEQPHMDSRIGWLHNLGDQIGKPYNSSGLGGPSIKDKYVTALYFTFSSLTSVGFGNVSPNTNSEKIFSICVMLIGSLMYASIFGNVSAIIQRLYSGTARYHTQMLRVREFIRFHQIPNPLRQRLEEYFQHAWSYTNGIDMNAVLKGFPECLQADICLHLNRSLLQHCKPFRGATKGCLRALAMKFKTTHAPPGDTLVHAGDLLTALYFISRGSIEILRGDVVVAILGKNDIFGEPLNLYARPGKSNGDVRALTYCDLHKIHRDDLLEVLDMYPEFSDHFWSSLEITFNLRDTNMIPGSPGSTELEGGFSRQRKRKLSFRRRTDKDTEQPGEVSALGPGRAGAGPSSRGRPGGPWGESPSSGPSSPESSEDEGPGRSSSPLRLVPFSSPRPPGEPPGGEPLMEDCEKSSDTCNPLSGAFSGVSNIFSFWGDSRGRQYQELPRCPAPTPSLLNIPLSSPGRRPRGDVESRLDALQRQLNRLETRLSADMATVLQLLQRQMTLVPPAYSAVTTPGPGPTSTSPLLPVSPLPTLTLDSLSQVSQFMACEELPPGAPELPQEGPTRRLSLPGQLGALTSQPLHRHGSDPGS
row,Compound,"hERG current change (%, negative = inhibition) at 1uM [%]"
1,COC(=O)[C@@H]1C[C@H]2CC[C@H](O)C[C@H]2N1Cc1ccc(C(F)(F)F)cc1,6.03
2,O=C(Cc1ccccc1)N1CCc2[nH]nc(-c3ccccc3)c2C1,12.6
3,Cc1ccc(NC(=O)COC(=O)Cc2csc(-c3ccc(Cl)cc3)n2)cc1C,3.33
4,CCOC(=O)c1nnn(-c2nn3nnnc3c3ccccc23)c1C,8.18
5,O=C(COC(=O)CCC(=O)c1ccc(F)cc1)Nc1ccc2[nH]c(=O)[nH]c2c1,1.6
6,COc1cccc(/C=N/n2nnnc2N)c1OCc1ccccc1Cl,6.8
7,CS(=O)(=O)N1CCN(C/C=C/c2ccccc2)CC1,13.3
8,CCOc1cc(/C=N/NC(=O)c2cccnc2)ccc1OC(=O)c1ccco1,11.1
9,O=C(Nc1ccc([N+](=O)[O-])cc1)c1ccc(S(=O)(=O)N2CCCC2)cc1,15.2
10,O=C(CCn1c(=O)c2ccccc2n(Cc2ccccc2)c1=O)NCc1ccc2c(c1)OCO2,1.61
11,O=c1c2ccccc2n2c(-c3ccc(C(F)(F)F)cc3)nnc2n1Cc1ccccc1,6.98
12,CC(=O)Nc1nnc(SCC(=O)Nc2ccc3c(c2)OCCO3)s1,4
13,CCOC(=O)n1c(=O)n(Cc2cccc(C)c2)c2ccccc21,10.6
14,CCn1cc(C(=O)Nc2ccc3c(c2)OCCO3)c2cc(OC)c(OC)cc2c1=O,7.8
15,O=S(=O)(Nc1ccc2c(c1)nc1n2CCN(Cc2ccccc2)C1)c1ccc(F)cc1,-18.3
16,Cc1ccc(Nc2nnc(SCC3CCCCO3)s2)cc1 (centres unmarked),6.78
17,Cc1ccc(S(=O)(=O)N(C)C)cc1NC(=O)C1CCCCN1S(=O)(=O)c1ccccc1 (centres unmarked),0.568
18,C=CCN1C(=O)SC(Cc2cccc(OC)c2O)C1=O (centres unmarked),2.31
19,COc1cc(NC(=O)Cc2cccs2)c(C(=O)O)cc1OC,21.2
20,Cc1ccc2c(c1)c1c(n2C)-c2[nH]ncc2CC1,2.76
21,CCn1nnnc1SCC(=O)Nc1cc(C)on1,7.26
22,O=[N+]([O-])c1cc(S(=O)(=O)N2CCCCC2)ccc1NCCCN1CCOCC1,-10.3
23,COc1ccc(/C(O)=C2/C(=O)C(=O)N(CCN(C)C)C2c2ccc(C)cc2)cc1Cl (centres unmarked),-1.16

row,Compound,"hERG current change (%, negative = inhibition) at 1uM [%]"
1,CC(C)N1CCc2c(sc(NC(=O)c3ccco3)c2C(N)=O)C1.Cl,8.01
2,CCOCCCn1c(=N)c(S(=O)(=O)c2ccccc2)cc2c(=O)n3cc(C)ccc3nc21,11.3
3,CC(=O)c1ccc(OC(=O)COc2ccccc2Cl)cc1,19.8
4,Cc1ccccc1CN1CCCC(C(=O)Nc2ccc(-c3ccn[nH]3)cc2)C1 (centres unmarked),18.9
5,Cc1nc(N2CCN(c3ccccn3)CC2)c2c(C)c(C(=O)Nc3ccccc3F)sc2n1,-4.74
6,C#CCOCCOCCOCCNc1nc(N2CCN(C(=O)[C@H]([C@@H](C)CC)n3cc(CCCC[NH3+])nn3)CC2)nc(N2CCN(C(=O)[C@H](CCCC[NH3+])n3cc(CC(C)O)nn3)CC2)n1.[Cl-] (some centres unmarked),6.46
7,CCc1cccc(OCCN2CCCC2)c1,-2.86
8,C=CCNC(=O)Nc1ccc(Cl)cn1,-12.6
9,CCN1CCCc2cc(CN(CCN3CCOCC3)C(=S)Nc3cc(F)cc(F)c3)ccc21,7.28
10,COc1ccc(C(C)=O)cc1COC(=O)c1cc2ccccc2cc1O,12.1
11,C=CCn1c(COc2cccc3ccc(C)nc23)nnc1SCC(N)=O,8.35
12,CC(=O)Nc1ccc(S(=O)(=O)N2CCCC3CCCCC32)cc1 (centres unmarked),9.36
13,CC(Cl)C(=O)Nc1cc(C(C)(C)C)nn1-c1ccccc1 (centres unmarked),12.8
14,Cc1ccc(C(=O)N2CCN(c3ccc([N+](=O)[O-])cc3-n3cccc3)CC2)cc1,-16.4
15,O=C1OCCC1Sc1nc(-c2ccccc2)cs1 (centres unmarked),6.3
16,Cl.Cn1cccc1CNCc1ccccc1Cl,6.89
17,CCCCNc1c(-c2cccc(-c3cc(C(C)=O)cs3)c2)nc2ccc(C)cn12.O=C(O)C(F)(F)F,10.2
18,CN(C)CC1CCCCC1=O.Cl (centres unmarked),12
19,Cc1ccc(C(=O)Nc2ccc3ncccc3c2)cc1,10.7
20,O=C1c2ccccc2NC(c2cccc(F)c2)N1Cc1ccccc1 (centres unmarked),0.865
21,COc1ccccc1N1CC(C(=O)Nc2ccc3c(c2)OCO3)CC1=O (centres unmarked),7.12
22,CCn1c(SCc2ccc(OC)c(F)c2)nc2ccccc2c1=O,17.2
23,COc1cc(OC)c(C(=O)N2CCCC2)cc1OC,6.17

row,Compound,"hERG current change (%, negative = inhibition) at 1uM [%]"
1,CC(C)Cc1ccc(C(C)C(=O)Nc2ccccc2O)cc1 (centres unmarked),10.1
2,Oc1c(Br)cc(Br)cc1C=Nc1cccnc1,10.5
3,COc1ccccc1CNC(=O)CN(c1ccc(C)cc1)S(=O)(=O)c1c(C)n[nH]c1C,9.68
4,COC(=O)CSc1nnc(SCc2ccc(Cl)cc2)s1,8.13
5,CCN(CC)C(=O)CSc1nnc([C@@H](N)C(C)C)o1.Cl,15.2
6,CCOC(=O)c1cnc(-n2nc(C)cc2C)nc1N(C)C,0.34
7,CCOC(=O)N1CCN(C(=O)c2cccc(S(=O)(=O)Nc3ccc(OC)cc3)c2)CC1,5.95
8,O=C(CSc1c2c(nc3cc(Cl)ccc13)CCCC2)NCCN1CCOCC1,0.879
9,Cc1c(Cl)cccc1NC(=O)[C@@H](NC(=O)c1ccccc1Cl)C(C)C,4.34
10,O=C(NC1CCCC1)C(c1ccc(F)cc1)N(C(=O)c1csnn1)C1CC1 (centres unmarked),2.95
11,Nc1ccc(C2(c3ccc(N)cc3)OC(=O)c3ccccc32)cc1,6.66
12,COCCOC(=O)C1=C(C)NC(=O)NC1c1c(Cl)nc2ccccn2c1=O (centres unmarked),7.13
13,CC(C)(C)NS(=O)(=O)c1ccc(NC(=S)NC(=O)C2CC2)cc1,10.5
14,COc1ccc(C(=O)COC(=O)c2cc(S(=O)(=O)NCc3ccccc3)ccc2O)cc1,11.6
15,O=C(NCc1ccc2c(c1)OCO2)NC12CC3CC(CC(C3)C1)C2,9.28
16,COc1ccccc1NC(=S)NNC(=O)c1nn(C)c(C)c1Cl,3.98
17,Cc1cc(C[n+]2ncsc2N)c2ncccc2c1.[Br-],-5.08
18,O=C1NCCN/C1=C\C(=O)c1cccc(Br)c1,1.79
19,CCN(CC(=O)Nc1c(F)cccc1F)C(=O)CCCc1c[nH]c2ccccc12,14.5
20,CC(C)(C)c1ccc(-c2nnc(NC(=O)c3ccccc3)s2)cc1,3.7
21,CCOC(=O)c1ccc(NC(=O)[C@@H](NC(N)=O)C(C)C)cc1,-0.13
22,O=C(COC(=O)[C@H](Cc1ccccc1)NC(=O)c1cccs1)NC1CCCCC1,2.71
23,O=C(CCCSc1nnnn1-c1cccc2ccccc12)c1ccc(F)cc1,3.22

row,Compound,"hERG current change (%, negative = inhibition) at 1uM [%]"
1,NS(=O)(=O)c1ccc(CNS(=O)(=O)Cc2ccc(Cl)cc2)cc1,13.6
2,O=[N+]([O-])c1ccc(N2CCNCC2)cc1Sc1ccccn1,-1.17
3,COc1ccc(Nc2cc(C)nc(-n3nc(C)cc3C)n2)cc1,-5.13
4,COc1cc(CNCCC2CCOC(C)(C)C2)ccc1O.Cl (centres unmarked),7.33
5,CC(=O)c1cccc(NC(=S)NC(=O)c2ccccc2)c1,13.1
6,CCSc1nnc(NC(=O)NC(C)(C(F)(F)F)C(F)(F)F)s1,-3.35
7,Cn1nc(C(C)(C)C)cc1C(=O)NN1CCOCC1,15.4
8,COc1ccc2c(c1)N(C(=O)CSc1n[nH]c(C)n1)C(C)(C)C=C2C,2.52
9,O=C(CN1CCN(c2cccc(Cl)c2)CC1)Nc1ccc(S(=O)(=O)N2CCOCC2)cc1,13.9
10,CCOc1ccc(NC(=S)NC2CC3CCC(C2)N3Cc2ccco2)cc1 (centres unmarked),-10.1
11,CN1C(=O)C(Cc2ccsc2)C(=O)N(C)C1=O,2.79
12,COc1ccc(N2CCN(Cc3cc4c(cc3O)CCC4)CC2)cc1,8.84
13,CC1CCN(CC(O)COc2ccc(C(=O)c3ccccc3)cc2)CC1 (centres unmarked),-20.2
14,COc1ccccc1NC(=O)NNC(=O)c1ccc2c(c1)NC(=O)C(C)(C)O2,15.7
15,COc1ccccc1NC(=O)NC(N)=O,7
16,COc1ccc(N2CCN(C(=O)C(=O)c3c(C)[nH]c4ccccc34)CC2)cc1,13.3
17,NC(N)=NS(=O)(=O)c1ccc(NC(=S)NC(=O)/C=C/c2ccc(F)cc2)cc1,9.08
18,CCO[C@H]1OC(C(=O)N2CCCCCCC2)=C[C@@H](c2csc3ccccc23)[C@@H]1CCCO,5.32
19,CC(C)COC(=O)N1CCCC1C(=O)O (centres unmarked),3.26
20,COCCn1c(SCC(=O)c2c(-c3ccccc3)n(C)c3ccccc23)nnc1-c1ccncc1,7.61
